# The source gives no read counts; variants with many changes may rest on few reads.
# B1: LINE1-full (parent)
# chain: UACGUAGGUGGUUUUCCCCUGAUAGUGCUAAGGGGGCCUGGAAGUUUGGACUGGGCAGAGCUCAACACAGCGUGGCAAAGUGGCUGUGGCUAGACUGCCUCUCUGGAUUCCUCGUCACUCAGCAGGGCAUCUCUGAGAGAAAUGCC
# Variants of: B1
# Test: self-cleavage, relative activity (ratio to wild type); higher = more cleavage; in vitro, sequencing; the parent is a self-cleaving ribozyme
row,Variant,self-cleavage
1,G10A C90G C120U U143C,0.08
2,U9G U46A U73G,1.28
3,U9C U52A U102C U132C,1.75
4,U12A G27A A64G U108C A129G,1.15
5,U12C A22G U39A A50G U96C,0
6,U9C A69G A124U U134C A142G,0.97
7,U9C U12C U73A,1.99
8,G11A U81A C84U A129G,0.14
9,G11U G40A U45G,0.15
10,U12A A22G A78G,1.66
11,U9C A42G G135A,0.53
12,U12C A59G A67U,0.12
13,U12C A31U A43G,1.01
14,G11A U52C A77U A107U,0.96
15,U12C A64G A124G,0
16,G11A G97A U104A A121G,0.11
17,U12C A30U U81A,1.7
18,U9C G74A A141G,0.58
19,U12C A24G A78G U130C,2.87
20,G11C A31U U108C A124G,2.12
21,U9C A59U A69G A142G,0.5
22,G11A U91A A138G,0.62
23,G10U U47C A107G,1.77
24,U12A U47C U85C A138G U143C,0.38

row,Variant,self-cleavage
1,U9C A57U A69U C103A,0.09
2,U9G A65G U100C,0.15
3,U9C U47A A77G U104C,1.6
4,G10A C17U A22G,0.93
5,U9G U132C A142C,0.96
6,U9G U39C U96A A141G,0.06
7,U9C U62C U143G,0.1
8,U12A U46A U91A U102C A129G,0.77
9,U12C A30G U39C U130C A136G,2.63
10,U12A U23A U81C,1.69
11,U9C A50U U73C U87C,0
12,G10A U14C U52C,1.13
13,U9G A69G G82A,0.54
14,U9C U96C A136G U143A,0.46
15,U9C U23A U46C C95U,0.44
16,U9C G32A G33C A79G U119C A124G,0
17,U9C U62C A78U C131A,0.06
18,U9C U47C G80A C90U U109C U112C A141U,0.05
19,U12A U46C A136G,1.57
20,U9C U13C U47A A94C A107G A142G,0
21,U12A G27U A43G,0.82
22,U12A A43G A77U,0.56
23,U9G U12A G35A A42U U62A A67G A107G U115A,0.16
24,U9G A64U A129G C133U,0.51

row,Variant,self-cleavage
1,G11A U46C U102A U108C U112A,2.66
2,U12C A42G A136G,1.33
3,U9C U81C A117G,1.71
4,U9C U46A G114A U143C,1.3
5,G11U U13G U62C,0.12
6,U9C U23C G36A U132C U134A C145U,0.89
7,G11A A64U A107G A124U,0.55
8,G10U U45C C56U,0.15
9,G11A U20A U119C A138G,2.42
10,U9C A43G U102A,1.39
11,U9C U102C A121U A141U,1.98
12,U9C G21A U81C U91C C95U,0.16
13,U12C A43G U62A A69G,0.12
14,U9C A124U A138G,1.33
15,U12A A107C A136G,0.96
16,U12C A31U A59G,0.17
17,G10A A57G A129G A140G,1.1
18,U9C C95A A141G,0.05
19,U9C A67U U73A,0.15
20,G10A A43G U46C A65U A129G,1.2
21,U9C U13A A138G,0.69
22,U9C U14C C17U A24C A77G C120U C123U,1.08
23,U9G U15C C99U,0.56
24,U9C U13A A69U U73C A92U,0.25

row,Variant,self-cleavage
1,U12A U73A U100C U115A,2.64
2,U12A U87C U96A,0.08
3,U12C A22G A121U U134C,1.44
4,G10A U12G A69G A142G,0.6
5,U9C U20A U85A,0.19
6,U9C C37G A64G A136G,0.47
7,U12C A31C A42G G82A U104A A141G,1.84
8,U9C A57G A64G,0
9,U12C A43G A67C U130C,0.49
10,U12C A57G U62A U108C A136C,0
11,U9C U26C U100C U132C,1.2
12,U12A U23C A57U,0
13,U9C A69U C128A,0.02
14,U9C A65G G72A,0.04
15,U9C A77U C98G U104C,0
16,U9C A64G U108C U134A,0.81
17,U12A A42G U45C A94G,0
18,U12A A117G A141G,1.89
19,U9C U85A U100C U112C,0.92
20,G11A U62A A64G A129G U132C,0.18
21,U12C A22G C38U U46C U91A A117U A140G,0.64
22,U12C A43G G53A C71U A78G,0.17
23,G11C A64U C76U U87A,0.1
24,U12C A43G A129C U130C,1.28

row,Variant,self-cleavage
1,U9C C28G U96C U115A U130C,0
2,U9C U46C A141G,2.44
3,U9C A43G A50U A136G,0
4,U12A U46C A57U U109C,0.09
5,U9G U14C U15C C98U,1.18
6,U12A A65G U104C U132C,0
7,U9C U13A A50G A92G,0
8,U9C A65G U100A,0.17
9,G10A U52A U73A G82A U132A,2.12
10,U9C U14C U143A,1.53
11,U12A U13C U45G U62A A136G A138G,0
12,U9G A77G U112C A142G,0.98
13,U9C G27A U47A A69U,0.02
14,U12C A59G U102C,0.2
15,G11U U15A U52C A94G,0.74
16,U12A U85A C131U,0.21
17,G10A C56A U112C,0.03
18,U9C G35A U132C,1.06
19,G11A U29C A50G,1.35
20,U12A U104A G105A A138G,1.55
21,U9C G58A C113A U130C U143C,0.09
22,U12A A65G A77G,0
23,U9C U15C A77G U96C,1.41
24,G10U A69G C120A,0.6

row,Variant,self-cleavage
1,U12C A30U A77G A117U A129U A138G,2.3
2,U9C U46C U52G,1.12
3,U9C C76U A121U,2.6
4,U9C A92G U96C,0
5,U9C U102C U134A,1.16
6,U9C A121G A138U,0.44
7,U9C A78C G125A U130C A141G,1.82
8,G11C A30G U47C A77G,0.66
9,U9C A64C A65G U130C A140G,0
10,G10A A50G G126A,0.88
11,U9C U46C U62C G75U A117G U130C,0
12,U12C A57U A136G A141C,0.23
13,U12A G35U C76U A92G U119C,0.05
14,U9G U15C U100C,1.06
15,U12C A43G A77G U108C,0
16,U9C A57G U62C A64G A79G U87A,0
17,U9G A65G U87C A117U C133A A141G U143C,0
18,G11U A30U A65G,0
19,U12C A57U U87C A107G,0
20,U9C A79G U115C U132C,1.47
21,U9C U85A A94G C110A U132C A141G,0.07
22,U9C U13C A117U A141G,0
23,U12A U73A A78G,0.44
24,U9C A42G U46C C84G,0.36

row,Variant,self-cleavage
1,U9C U26A U62A,0.18
2,U9C U14A A77G,1.6
3,U12C A43U A65G G70A A77U,0.1
4,U12A A42G U134C,0.79
5,U9C A57G U119A,1.07
6,U9C U100C A129C,2.3
7,G10A C28A A78G A79U U130C,0.64
8,U9C U15C U104C,1.38
9,G11U U12C A22U A31C A59G,0.16
10,U9C U12G G86U U100C,0.41
11,U12A A31C G139A,1.42
12,U9C A79G A141G,1.1
13,G10A U23C A31G C99A U143C,0.61
14,G10A C51A U96C,0.13
15,U9G A64G A94U,0.12
16,U12C A57U U119C A138U,0.31
17,G10A A22G A64U C71U U115C C133A,0.18
18,U9C G41A U81C A129G A140G,1.94
19,U12C A43G U112C A117C,0
20,U9G U14C U45C C76U,0.82
21,G10A U23C C68U A94G A121G,0.05
22,U9G A31G U73C,0.46
23,U9C A107G A138G,1.06
